Data: PubChem BioAssay AID1345082 (National Center for Advancing Translational Sciences (NCATS), 2018)
Several values for one entry are separate records, joined by “and”; a condition that tells them apart may be missing. Equal values may be shown once. Among all 94,000 compounds or so, about 4,000 (4.3%) were called active. This list was built around the results that the source calls inconclusive (neither active nor inactive); the mix of calls is not that of the screen. Calls come from the whole dose curve; as a rule, active = well fitted inhibition curve with a large enough effect; inconclusive = small, poorly fitted or top-dose-only effect; inactive = no such curve, though single readings can be large or run the other way. Potencies beside an inconclusive call are fits to weak or partial responses and may not hold up.

Test: Cytotoxic Profiling in NIH 3T3 Cell Line of Diverse Libraries Using Quantitative High-Throughput Screening; note: nearly all actives have a fitted effect of over 55% in size
Settings: NIH 3T3 viability, CellTiter-Glo ATP luminescence, 48-72 h; activity change, negative = cytotoxicity: at 96.7 µM (top of the series); series mostly up to 96.7 µM
How it was run: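 Cells were seeded at 400 per well, treated with pin-transferred compound, and kept 48 or 72 hr at 37 °C before CellTiter-Glo addition and luminescence imaging of cellular ATP.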
% is set by controls: 0 for no effect and ±100 for the full control effect; potency is the fitted concentration of half-maximal effect; tags give direction and shape of the fitted curve.

| SMILES | Potency | outcome | activity change, negative = cytotoxicity |
| --- | --- | --- | --- |
| CC(C)CCN1CCC2(CC1)CC(=O)N(c1ccccc1)c1ccccc1O2 | inconclusive: 44.7 µM [inhibitor, partial curve, poor fit] and inconclusive: 35.5 µM [inhibitor, partial curve] | – | – |
| O=C(c1ccc(C(F)(F)F)cc1)N1CCC(C(=O)N2CCC(N3CCCC3=O)CC2)CC1 | – | inactive | – |
| CC1(c2ccccc2)N(Cc2ccccc2C#N)C(=O)OC12CCN(C(=O)Cc1cccc(F)c1)CC2 (stereo unspecified) | – | – | inactive: -30.8% |
| CCOc1ccccc1-c1nccn1C1COc2ccccc2C1 (stereo unspecified) | inconclusive: 35.5 µM [inhibitor, full curve] | – | – |
| CCn1ccc2sc(C)c(C(=O)NCc3ccc(Br)cc3)c2c1=O | – | – | inactive: -2.13% |
| Cc1[nH]c2c(F)cccc2c1CC(=O)NC1CC(c2cc(=O)[nH]c(N)n2)C1 (stereo unspecified) | – | – | inactive: -13.5% |
| Cc1nn(-c2ccccc2)c2c1C(C)N(C1CCN(C(=O)Cc3ccc(F)cc3)CC1)C2=O (stereo unspecified) | inconclusive: 50.1 µM [inhibitor, partial curve, poor fit] | – | – |
| O=C(c1cc2cn(C3CC3)cc2s1)N1CCc2ccccc2C1 | inconclusive: 50.1 µM [inhibitor, partial curve, poor fit] | – | – |
| CCc1noc(-c2cccn3c(CNC(=O)CCc4ccccc4)nnc23)n1 | – | – | inactive: -7.32% |
| COCCNC(=O)c1cc(-c2ccc(F)cc2)nc2c1cnn2C | inconclusive: 79.4 µM [inhibitor, partial curve] | – | – |
| CCC(=O)N1Cc2ccccc2CC2(CCCCN2C)C1 (stereo unspecified) | inconclusive: 89.1 µM [inhibitor, partial curve] | – | – |
| Cc1ccc2oc(C(=O)N(C)CCc3ccccc3)c(C)c2c1 | inconclusive: 56.2 µM [inhibitor, partial curve, poor fit] | – | – |
| COc1cccc(N2C(=O)NC(=NC3CCCC3)C23CCCN([S+](=O)([O-])c2ccccc2)C3)c1 (stereo unspecified) | – | – | inactive: -17.5% |
| O=C(C1CCCCN1Cc1ccc(-c2cccs2)cc1)N1CCC(Cc2ccccc2)CC1 (stereo unspecified) | inconclusive: 50.1 µM [inhibitor, partial curve, poor fit] | – | – |
| O=C(NC1CC1)c1cc(-c2ccc(Cl)cc2Cl)c2nncn2n1 | inconclusive: 112 µM [inhibitor, partial curve, poor fit] | – | – |
| COCCn1ccc2c(C3=CCOCC3)nc(-c3cccc(O)c3)cc21 | inconclusive: 10 µM [inhibitor, full curve, poor fit] | – | – |
| CNC(=O)[C@@H]1CN(C(=O)c2cncn2C)C[C@H]1COC | – | – | inactive: -6.46% |
| CCC1Oc2ccc(NC(=O)c3cccc(F)c3)cc2CN(Cc2ccccc2F)C1=O (stereo unspecified) | inconclusive: 44.7 µM [inhibitor, partial curve, poor fit] | – | – |
| CSc1ccc(C(=O)N2CC(=O)N(Cc3ccc(C)cc3)CC(O)C2)cc1 (stereo unspecified) | inconclusive: 70.8 µM [inhibitor, partial curve, poor fit] | – | – |
| CSc1cccc(NC(=O)Cn2c(-c3cccc(Cl)c3)nc(C)c(CCO)c2=O)c1 | inconclusive: 50.1 µM [inhibitor, partial curve, poor fit] | – | – |
| O=C(Nc1ccc(F)cc1)c1c[nH]c2cccnc12 | inconclusive: 44.7 µM [inhibitor, partial curve, poor fit] | – | – |

| SMILES | Potency | outcome | activity change, negative = cytotoxicity |
| --- | --- | --- | --- |
| O=C(NC1CCCCC1)N1Cc2[nH]cnc2C[C@H]1c1nc(-c2ccc(Cl)cc2)no1 | – | – | inactive: -26.9% [at 174 µM] |
| COc1cccc(CNC(=O)[C@@H]2CCCN2c2nccc(Nc3ccccc3Cl)n2)c1 | inconclusive: 44.7 µM [inhibitor, partial curve, poor fit] | – | – |
| Cc1ccc(N2CC(c3noc(-c4ccc5c(c4)OCO5)n3)CC2=O)cc1 (stereo unspecified) | – | – | inactive: -0.0663% |
| Cc1nn(-c2ccccc2)c2c1C(C1CC1)N(C1CCN(Cc3cccc(OC(F)(F)F)c3)CC1)C2=O (stereo unspecified) | inconclusive: 63.1 µM [inhibitor, partial curve, poor fit] | – | – |
| COC(=O)[C@@H](Cc1cccnc1)NC(=O)[C@H]1CN(C(=O)Nc2ccccc2)CCN1S(=O)(=O)c1ccccc1 | – | – | inactive: -33.8% |
| COC(=O)C1=C(C)N=C2SC=C(CC(=O)NCC3CC3)N2C1c1ccccc1OC (stereo unspecified) | – | – | inactive: -9.04% |
| COc1ccc(CC(=O)N2CCC3(CC2)CN(C(=O)c2ccc(Cl)cc2)CCO3)cc1 | inconclusive: 44.7 µM [inhibitor, partial curve, poor fit] | – | – |
| O=C(c1ccc(F)cc1)N1CCN(CCCn2nc3n(c2=O)CCCC3)CC1 | – | – | inactive: -14.4% |
| O=C(NC[C@H]1O[C@H](Cc2cc(-c3ccccc3)on2)CC[C@@H]1O)c1ccccc1F | – | – | inactive: -27.9% [at 174 µM] |
| Cc1cnc(CC2CCN(S(=O)(=O)c3ccc4c(c3)CCC4)C2)n1Cc1ccccc1 (stereo unspecified) | inconclusive: 44.7 µM [inhibitor, partial curve, poor fit] | – | – |
| Cc1ccccc1CNC[C@H]1Cn2c(-c3ccccc3)cnc2CO1 | inconclusive: 100 µM [inhibitor, single point] | – | – |
| Cc1cn2nc(C(=O)Nc3ccc(N(C)C)cc3)cc2c(N2CCCC2)n1 | inconclusive: 44.7 µM [inhibitor, partial curve, poor fit] | – | – |
| O=C(C1CN(C2CCCCC2)C(=O)N1)N1CCC(Cc2ccccc2)CC1 (stereo unspecified) | inconclusive: 50.1 µM [inhibitor, partial curve, poor fit] | – | – |
| COc1ccc(CN2C(=O)CO[C@H]3CN(c4ccc(C#N)cn4)C[C@H]32)cc1 | inconclusive: 70.8 µM [inhibitor, partial curve] | – | – |
| O=C(Nc1cccc(C(F)(F)F)c1)N1CCC(N2CC3CC(C2)[C@H]2CCCC(=O)N2C3)CC1 (stereo partly specified) | – | – | inactive: -2.18% |
| OCc1cccc(-c2ccc3ncc(Nc4ccccc4Cl)n3n2)c1 | inconclusive: 79.4 µM [inhibitor, partial curve, poor fit] | – | – |
| Cc1[nH]cnc1CN1CCCC(c2[nH]ncc2Cc2ccccc2)C1 (stereo unspecified) | inconclusive: 50.1 µM [inhibitor, partial curve, poor fit] | – | – |
| CC(C)n1cnnc1-c1nn(C)c2c1CN(C(=O)Cc1c[nH]c3ccccc13)CC2 | – | – | inactive: -22.9% |
| CNC(=O)C1CCN(C(=O)c2ccc(-c3cccc(OC)c3)cc2)CC1 | inactive | – | – |
| O=C(NCc1cccs1)C1CCCN1C(=O)c1cccc(-c2cccnc2)c1 (stereo unspecified) | – | – | inactive: -12% |
